Among the data in PubChem BioAssay (NCI) are GI50 and TGI values, retold here.

The structures appear in SMILES notation. Where “and” joins values, the source holds several entries; their conditions need not be identical. Equal values may be shown once.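 Cells were grown in 96-well plates and exposed to each compound for 48 hours at five concentrations; endpoints were interpolated linearly between bracketing concentrations, or set to the highest concentration if not reached. GI50 = concentration required for 50% inhibition of growth. The concentration for full growth arrest is given as TGI.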

The subject of this assay is NCI-H322M lung. Put plainly: inhibition of tumour cell growth, NCI panel, 48 h.
`CCc1ccc([OH2+])c(C(=O)[O-])c1.CCc1ccc([OH2+])c(C(=O)[O-])c1.CCc1ccc([OH2+])c(C(=O)[O-])c1.CCc1ccc([OH2+])c(C(=O)[O-])c1.[Cu+2].[Cu+2]`: the GI50 was 21.3 µM and the TGI came to 45.2 µM.

Consider `COc1cc([C@@H]2c3cc4c(cc3[C@@H](OC3OC5COC(C)OC5C(O)C3O)[C@H]3COC(=O)[C@H]23)OCO4)cc(OC)c1O` (stereo partly specified), for which the TGI is 141 µM and 500 µM and 459 µM.

Consider `O=C1OCc2nc3c(c(-c4ccccc4C(F)(F)F)c21)C(=O)OC3`, for which the TGI is > 100 µM.

In the case of `CC1=Nc2ccccc2S/C1=C1/C=NC(=NC#N)N=C1C(=O)Nc1cccc(Cl)c1`, the TGI was > 100 µM.

In the case of `O=C(O)CN(CCN(CC(=O)O)CC(=O)O)CC(=O)O.[Cu+2].[Na+]`, the GI50 was > 100 µM and the TGI is > 100 µM.

For the compound `C#C[C@]1(O)CC[C@H]2[C@@H]3CCC4=C/C(=N/OC(=O)c5cccc6cc7ccccc7nc56)CC[C@@H]4[C@H]3CC[C@@]21CC`, the TGI was > 100 µM.

Take `COc1ccc(/C(=C(\c2ccccc2)[N+](=O)[O-])c2ccc(OCCN3CCCC3)cc2)cc1`: the GI50 is 4.49 µM and the TGI stood at 14.6 µM.

Take `O=c1[nH]nc(-c2cccc([N+](=O)[O-])c2)[nH]1`: the TGI is > 100 µM.

In the case of `COc1cc2c3c(c4ccc(O)cc4c2cc1OC)[C@@H](O)[C@@H]1CCCN1C3`, the TGI is < 0.001 µM.

For `COC(=O)c1sc(-n2cnc3cc(OC)c(OC)cc32)cc1OCc1ccccc1C(F)(F)F`, the GI50 is > 25 µM and the TGI is > 25 µM.

Consider `COc1cc2c(c3oc4c(O)cccc4c(=O)c13)CC(C(C)(O)CCl)O2` (stereo unspecified), for which the TGI was found to be 20.8 µM.

Take `CC[C@H](C)[C@H](NC(=O)CN(C)C)C(=O)N(C)[C@H](C[C@@H](OC(C)=O)c1nc(C(=O)NC23C4C5C2C2C3C4C52C(=O)OC)cs1)C(C)C` (stereo partly specified): the GI50 is 1.3 µM and the TGI is > 33.2 µM.

Consider `Cc1[nH]c2c(C)c3c([nH]c4ccc(Cl)cc43)c(C)c2c(=O)c1C`, for which the TGI stood at 77.4 µM.

On to `COc1cccc(NC(=O)/C(CS(=O)(=O)CCC(C(C)=O)C(C)=O)=N\NC(C)(C)C)c1`, for which the TGI is > 100 µM.

Take `COc1cc2c(c(O)c1OC)C(O)C1CCC(=O)N1C2c1ccc2c(c1)OCO2` (stereo unspecified): the TGI was > 100 µM.

With `COc1cc(/C=N/NC(=O)c2cnn3c2NC(c2ccccc2)C3)ccc1OCc1ccccc1` (stereo unspecified), the GI50 was 2.02 µM and the TGI was found to be 22.2 µM.

Take `NS(=O)(=O)c1ccc(Nc2c3ccccc3nc3c(C(=O)NC(CO)(CO)CO)cccc23)cc1`: the TGI is 0.356 µM.

Regarding `CC1OC(O[C@@H]2C=C3CC[C@@H]4[C@H](CC[C@]5(C)[C@@H](c6ccc(=O)oc6)CC[C@]45O)[C@@]3(C)CC2)C(O)C(O)C1O` (stereo partly specified), the TGI was 0.00254 µM and 0.000577 µM.

With `C=CC[PH+](c1ccccc1)c1ccccc1.C=CC[PH+](c1ccccc1)c1ccccc1.[Pt+2].[S-]c1nc2ccccc2[nH]1.[S-]c1nc2ccccc2[nH]1`, the GI50 is 2.1 µM and the TGI came to 6.1 µM.

With `CCOc1c2c(cc3c1C(=O)c1c(OC)cccc1C3=O)C=C(OC)CC2`, the TGI is > 25 µM.

For the compound `CC(C)=CC(=O)c1[nH]c2ccccc2c1CC(=O)NCCc1cnc[nH]1`, the TGI is > 100 µM.

`CCCCCn1sc(=O)n(Cc2ccc(CNC(=O)C(C)c3ccc(CC(C)C)cc3)cc2)c1=O` (stereo unspecified): the GI50 was 1.61 µM and the TGI amounted to 3.17 µM.

On to `CC1(C)C2CC(=O)C1(C)C(OCc1ccccc1)C2Br` (stereo unspecified), for which the GI50 was 49.9 µM and > 100 µM; the TGI is > 100 µM.

Turning to `O=C(O)CCCCCNCc1cc2cc3c(cc2c2cc(OCc4ccccc4)ccc12)OCO3`, the GI50 is 2.13 µM and the TGI is 4.82 µM.

Take `Oc1ccccc1/C=N\NC(=S)Nc1ccc(F)cc1`: the GI50 was 1.6 µM and the TGI stood at 28.8 µM.

Take `O=C1c2cccc3cc([N+](=O)[O-])cc(c23)C(=O)N1c1ccc(OCCN2CCCC2)cc1`: the TGI is > 100 µM.

Take `NC1CC(=O)c2c(I)sc(I)c21` (stereo unspecified): the TGI is 48.9 µM.

As for `N#Cc1ccc2c(-c3ccnc(NC4CC4)n3)c(-c3ccc(F)cc3)nn2c1`, the GI50 was > 25 µM and the TGI was > 25 µM.

Turning to `O=C1N[C@@H]([C@H]2CC[C@H](Cl)CN2)C(=O)N[C@H]1[C@H]1CC[C@H](Cl)CN1`, the TGI came out at 57 µM.

Take `CN(CCNC(=O)c1nn(C)c2c1Cc1ccccc1-2)CCNC(=O)c1nn(C)c2c1Cc1ccccc1-2`: the TGI worked out at 35.2 µM.

`C=C(CN1CCN(c2cc(C(F)(F)F)cc(C(F)(F)F)c2)CC1)c1ccc(C(=O)Nc2ccccc2N)cc1`: the GI50 is 21.9 µM and the TGI is > 100 µM.

Take `O=C1N(c2ccc(Cl)cc2)C(=O)C2(SC=NN2Cc2ccccc2)N1c1ccc(Cl)cc1` (stereo unspecified): the TGI was > 100 µM.

On to `Nc1nc(SCC#CCCl)c2[nH]cnc2n1`, for which the GI50 was 13.1 µM and the TGI was found to be 31.9 µM.

As for `COc1ccc(Cl)cc1NC(=O)O/N=C(\Cl)C(C)C`, the TGI came to 34.4 µM.

For the compound `CCn1c(=O)c2nc(SC)sc2n(-c2ccccc2)c1=S`, the TGI is > 100 µM.

Turning to `C(=C\c1ccc2ccccc2c1Nc1ccccc1)/c1ccccc1`, the TGI is > 100 µM.

In turn, `CC1=C(C(=S)Nc2ccc(Cl)c(C(=O)OC(C)C)c2)SCCO1` returned a TGI of 72.9 µM.

As to `Cc1cc2c3ccccc3n3c2c2c1OC1(C)CCC(C2C1)C3(C)C` (stereo unspecified), the TGI is > 25 µM.

`O=[N+]([O-])c1ccc(N=P(c2ccccc2)(c2ccccc2)c2ccccc2)n2nnnc12`: the TGI is > 100 µM.

In the case of `N#Cc1sc2nc3c(c(-c4ccccc4)c2c1N)CCCC3`, the TGI was > 100 µM.

As to `COc1cccc(/C=C\C(=O)c2ccccc2)c1`, the GI50 was 14.9 µM and the TGI was 30.9 µM.

In the case of `Cc1ccc(-c2ccc3c(c2)Sc2ccccc2O3)n1C`, the TGI is > 100 µM.

Regarding `COc1ccc2c(c1O)[C@@]13CCCC=C1[C@@H](C2)N(C)CC3`, the TGI was > 100 µM.

As to `CC(=O)CC(O)(C(F)(F)Cl)C(F)(Cl)Cl` (stereo unspecified), the TGI was > 10 µM.

In the case of `O=C(Nc1c[nH]c(=O)[nH]c1=O)Oc1ccccc1`, the TGI is > 100 µM.

The compound `C(/C=C(\Nc1ccccc1)c1ccc2ccccc2c1)=Nc1ccccc1` displayed a TGI of 8.59 µM.
